Some of the results follow. Many values rest on one well or one pass, so single values are uncertain.
Legend:
Test in all cases: cell count relative to DMSO control; melanoma cells; higher = more viable cells
Conditions in all cases: library dose: low library concentration; 72 h
WM115 = system: WM115
WM1716 = system: WM1716
WM1745 = system: WM1745
WM3526 = system: WM3526
WM3619 = system: WM3619
WM451Lu = system: WM451Lu
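Note: cell number obtained by counting DAPI-stained nuclei in high-throughput microscope images with image analysis software, screen run in 1,536-well plates.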

Row | Compound | cell count (WM115) [%] | cell count (WM1716) [%] | cell count (WM1745) [%] | cell count (WM3526) [%] | cell count (WM3619) [%] | cell count (WM451Lu) [%]
1 | CC(=O)O[C@@]12CO[C@@H]1C[C@H](O)[C@@]1(C)C(=O)[C@H](O)C3=C(C)[C@@H](OC(=O)[C@H](O)[C@@H](NC(=O)OC(C)(C)C)c4ccccc4)C[C@@](O)([C@@H](OC(=O)c4ccccc4)[C@H]21)C3(C)C [Docetaxel] + CCc1ccc(CCOc2ccc(CC3SC(=O)NC3=O)cc2)nc1 [pioglitazone] (first compound 0.0001 µM, partner dose 2 µM) | 73.1 | 45.9 | 47.6 | 49.1 | 80 | 47.3
2 | CC(=O)c1c(C)c2cnc(Nc3ccc(N4CCNCC4)cn3)nc2n(C2CCCC2)c1=O [palbociclib] + Cn1c(Nc2ccc(C(F)(F)F)cc2)nc2cc(Oc3ccnc(-c4ncc(C(F)(F)F)[nH]4)c3)ccc21 [CHIR265] (first compound 0.04 µM, partner dose 0.08 µM) | 58.9 | 58.4 | 58.7 | 46.4 | 66 | 79
3 | CC(=O)O[C@@]12CO[C@@H]1C[C@H](O)[C@@]1(C)C(=O)[C@H](O)C3=C(C)[C@@H](OC(=O)[C@H](O)[C@@H](NC(=O)OC(C)(C)C)c4ccccc4)C[C@@](O)([C@@H](OC(=O)c4ccccc4)[C@H]21)C3(C)C [Docetaxel] + CO[C@H]1C[C@@H]2CC[C@@H](C)[C@@](O)(O2)C(=O)C(=O)N2CCCC[C@H]2C(=O)O[C@H]([C@H](C)C[C@@H]2CC[C@@H](OCCO)[C@H](OC)C2)CC(=O)[C@H](C)/C=C(\C)[C@@H](O)[C@@H](OC)C(=O)[C@H](C)C[C@H](C)/C=C/C=C/C=C/1C [everolimus] (first compound 0.0001 µM, partner dose 0.02 µM) | 55.3 | 35.2 | 51.7 | 40.6 | 69.7 | 63.2
4 | Nc1ccn([C@@H]2O[C@H](CO)[C@@H](O)C2(F)F)c(=O)n1 [gemcitabine] + O=S(=O)(c1ccccc1)N(CC(F)(F)F)c1ccc(C(O)(C(F)(F)F)C(F)(F)F)cc1 [T0901317] (first compound 0.0004 µM, partner dose 1.4 µM) | 81.6 | 85.7 | 60.9 | 76 | 70.3 | 63.7
5 | CC(=O)c1c(C)c2cnc(Nc3ccc(N4CCNCC4)cn3)nc2n(C2CCCC2)c1=O [palbociclib] + O=C(Nc1cccc(Cl)c1)Nc1ncc(CCNc2ncnc3ccsc23)s1 [SNS314] (first compound 0.04 µM, partner dose 0.0008 µM) | 54.8 | 55.2 | 64.8 | 63.7 | 66.5 | 80.5
6 | Nc1nc(F)nc2c1ncn2[C@@H]1O[C@H](CO)[C@@H](O)[C@@H]1O [fludarabine] + CO[C@@H]1[C@H](N(C)C(=O)c2ccccc2)C[C@H]2O[C@]1(C)n1c3ccccc3c3c4c(c5c6ccccc6n2c5c31)C(=O)NC4 [Midostaurin] (first compound 0.2 µM, partner dose 0.08 µM) | 79.3 | 73.3 | 79.7 | 22.1 | 112 | 41.9
7 | Nc1ccn([C@@H]2O[C@H](CO)[C@@H](O)C2(F)F)c(=O)n1 [gemcitabine] + C=CCNC1=C2C[C@@H](C)C[C@H](OC)[C@H](O)[C@@H](C)/C=C(\C)[C@H](OC(N)=O)[C@@H](OC)/C=C\C=C(/C)C(=O)NC(=CC1=O)C2=O [Tanespimycin] (first compound 0.0004 µM, partner dose 0.002 µM) | 83.2 | 94.3 | 68.1 | 87.8 | 44.4 | 115
8 | CO[C@H]1C[C@@H]2CC[C@@H](C)[C@@](O)(O2)C(=O)C(=O)N2CCCC[C@H]2C(=O)O[C@H]([C@H](C)C[C@@H]2CC[C@@H](OCCO)[C@H](OC)C2)CC(=O)[C@H](C)/C=C(\C)[C@@H](O)[C@@H](OC)C(=O)[C@H](C)C[C@H](C)/C=C/C=C/C=C/1C [everolimus] + CO[C@@H]1[C@H](N(C)C(=O)c2ccccc2)C[C@H]2O[C@]1(C)n1c3ccccc3c3c4c(c5c6ccccc6n2c5c31)C(=O)NC4 [Midostaurin] (first compound 0.02 µM, partner dose 0.08 µM) | 70.9 | 62.8 | 86.8 | 84.2 | 83.4 | 65.4
9 | CC(=O)O[C@@]12CO[C@@H]1C[C@H](O)[C@@]1(C)C(=O)[C@H](O)C3=C(C)[C@@H](OC(=O)[C@H](O)[C@@H](NC(=O)OC(C)(C)C)c4ccccc4)C[C@@](O)([C@@H](OC(=O)c4ccccc4)[C@H]21)C3(C)C [Docetaxel] + C=C(c1ccc(C(=O)O)cc1)c1cc2c(cc1C)C(C)(C)CCC2(C)C [Bexarotene] (first compound 0.0001 µM, partner dose 2 µM) | 55 | 27.1 | 47 | 36.6 | 87.6 | 55.3
10 | Nc1ccn([C@@H]2O[C@H](CO)[C@@H](O)C2(F)F)c(=O)n1 [gemcitabine] + CCc1ccc(CCOc2ccc(CC3SC(=O)NC3=O)cc2)nc1 [pioglitazone] (first compound 0.0004 µM, partner dose 2 µM) | 93 | 82.7 | 76.5 | 106 | 96.1 | 104

Reference: the supplement of paper PMC4604168 (melanoma cell lines)
